PubChem BioAssay (NCI)
Values joined by “and” are separate entries in the source; they are usually repeats but may differ in a detail not shown here. Equal values may be shown once.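 The compound was tested at five concentrations on cells cultured in 96-well plates, with a 48-hour exposure period. GI50 marks 50% less growth. TGI denotes the concentration required for complete inhibition of growth.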 Square brackets hold non-standard residues; d marks the D form. Peptide text beside a SMILES is read from it. * marks the point of attachment. ξ: configuration not given here. NMeN = CN[C@@H](CC(N)=O)C(=O)O; NMeV = CN[C@H](C(=O)O)C(C)C; ξNMeV = CNC(C(=O)O)C(C)C; Boc = CC(C)(C)OC(=O)*; ξNMeA = CNC(C)C(=O)O

System: NCI-H322M lung
Assay: NCI-60 cell line screen, 48 h

Row | Compound | GI50 | TGI
1 | COC(=O)C(C)N(C)C(=O)[C@H](CC(N)=O)N(C)C(=O)[C@@H]1CCCN1C(=O)[C@H](C(C)C)N(C)C(=O)C(C(C)C)N(C)C(=O)[C@@H](NC(=O)OC(C)(C)C)C(C)C (stereo not given in full) (Boc-V[ξNMeV][NMeV]P[NMeN][ξNMeA]-OMe) | > 100 µM | > 100 µM
2 | COc1cc(C2c3cc4c(cc3OC(Nc3ccccc3)C2C)OCO4)cc(OC)c1OC (stereo not given) | – | > 27.3 µM
3 | Cc1ccc(-c2nc(N)nc3c2nnn3Cc2cccc(CO[C@H]3CCOC3)n2)o1 | > 100 µM | > 100 µM
4 | O=C1c2c(ccc3c2CCC3)CC12Cc1cc3c(cc1C2)CCC3 | – | > 100 µM
5 | COC(=O)C1=C(\c2ccccc2)c2ccccc2C(=O)N(C2CCCCC2)/C=C\1 | – | > 100 µM
6 | C=CCN1C=CC(=O)[C@H](O[Si](C)(C)C(C)(C)C)[C@@H]1/C=C/c1ccccc1 | 15.3 µM | 31.2 µM
7 | CC(C)C1CCC/C=C/C=C/C=C/C=C/C(OC2OC(C)C(O)C(N)C2O)CC2OC(O)(CC(O)CC(O)C(O)CCC(=O)O1)CC(O)C2C(=O)O (stereo not given) | – | > 52.5 µM
8 | O=C(Nc1ccc(F)cc1)C(=O)C(C1OC(=O)c2ccccc21)[N+](=O)[O-] (stereo not given) | – | > 100 µM
9 | CCOC(=O)c1c(-c2ccc(O)c(OC)c2)c(C#N)c(=S)n(C2OC(COC(C)=O)C(OC(C)=O)C(OC(C)=O)C2OC(C)=O)c1-c1ccccc1 (stereo not given) | – | > 100 µM
10 | O=C([CH-]C(=O)c1ccccc1)c1ccccc1.O=C([CH-]C(=O)c1ccccc1)c1ccccc1.O=C([CH-]C(=O)c1ccccc1)c1ccccc1.[OH3+].[Y+3] | 4.25 µM | 39.9 µM
11 | CC12CCC(C(=O)N3CC=CCC3)(OC1=O)C2(C)C (stereo not given) | – | > 100 µM
12 | CCC(=O)NC(Nc1ccc(O)cc1)(C(F)(F)F)C(F)(F)F | – | > 100 µM
13 | Cc1cccc2[s+]snc12 | – | > 100 µM
14 | COc1ccc(-c2ccc(/C=N/n3c(COc4ccc(Cl)cc4Cl)nn(CN4CCN(C)CC4)c3=S)o2)c([N+](=O)[O-])c1 | 14.3 µM | 39.6 µM
15 | C=C[C@H]1CCC/C=C/[C@@H]2C[C@H](O)C[C@H]2[C@H](O)/C=C/C(=O)O1 | 0.0604 µM | > 83 µM
16 | O=P([O-])(O)OP(=O)([O-])O.[NH-][C@@H]1CCCC[C@H]1[NH-].[Pt+4] | 59.5 µM and 25.2 µM | > 100 µM
17 | NC(N)=N/N=C/c1c(-c2ccc([N+](=O)[O-])cc2)nc2n1CCS2 | – | 26.1 µM
18 | O=C([O][Hg][CH2]C1COCC([CH2][Hg][O]C(=O)c2ccccc2)O1)c1ccccc1 (stereo not given) | 16.6 µM | 31.6 µM
19 | O=c1[nH]c2c3ccccc3ccc2c2cc3c(cc12)OCO3 | – | > 100 µM
20 | O=C1NC2CCC(C2)C1c1ccccc1 (stereo not given) | – | > 100 µM
21 | NC1=NN(c2ccccc2)C2(O)c3ccncc3C3=NN(c4ccccc4)C(=O)C132 (stereo not given) | – | > 100 µM
22 | Cc1ccc(/C=C/C(=O)c2sc(-c3cccnc3)nc2C)cc1 | – | > 100 µM
23 | COc1ccc(/C=C2\CCCCCC2=O)cc1 | – | > 100 µM
24 | COC(=O)C1[C@@H](C(=O)OC)C12C=Cc1ccccc1C=C2 (stereo not given in full) | – | > 100 µM

Row | Compound | GI50 | TGI
25 | O=[N+]([O-])c1ccc(N=Nc2c(O)ccc3ccccc23)cc1 | – | > 100 µM
26 | CC(=O)OCC1OC(N2C(C)=C(C(C)=O)C(c3ccco3)C(C#N)=C2S)C(OC(C)=O)C(OC(C)=O)C1OC(C)=O (stereo not given) | – | > 100 µM
27 | N=C(N)c1csc([C@@H]2O[C@H](CO)[C@@H](O)[C@H]2O)n1 | – | > 100 µM
28 | C/C(=N/O)c1cccc(Nc2nc3ccc(Cl)cc3c3[nH]c4ccccc4c23)c1 | – | 2.72 µM
29 | CCCCC(=O)NC1(c2cc3ccccc3s2)CCCCC1 | – | > 100 µM
30 | CCOC(=O)C1=C(Nc2ccc(Cl)cc2Cl)OC/C1=N\NS(=O)(=O)c1ccc(C)cc1 | – | > 100 µM
31 | CNn1c(C)n[nH]c1=O | – | > 100 µM
32 | [O-][n+]1onc(-c2ccccc2)c1CN1CCOCC1 | – | > 100 µM
33 | C=C(C)CN(CC#N)CC(=C)C | – | > 100 µM
34 | O=[N+]([O-])c1ccc(Nc2nc3ccccc3s2)cc1 | – | > 100 µM
35 | CCCCCCCCCCC(O)C1CCC(C(O)CCC(O)C2CCC(CCCCCCC[C@H](O)CC3=C[C@@H](C)OC3=O)O2)O1 (stereo not given in full) | – | > 100 µM
36 | O=S(=O)(c1ccc(N=C2NN=C(c3c[nH]c4ccccc34)CS2)cc1)N1CCOCC1 | > 100 µM | > 100 µM
37 | COc1ccc(-c2nc3ncccn3c2/C=C/C(=O)c2cc(OC)c(OC)c(OC)c2)cc1 | 1.76 µM | 7.63 µM
38 | C1CCN(C2OC3C(COC3N3CCCCC3)OC2OC2CCO[C@@H]2N2CCCCC2)CC1 (stereo not given in full) | – | > 100 µM
39 | CC(C)(C)[Si](C)(C)OCC1CCC(n2cnc3c(N)ncnc32)O1 (stereo not given) | – | > 100 µM
40 | CN(/N=C/c1ccccn1)C1=NCCCCN1 | – | > 100 µM
41 | COc1cc(C2=C(C#N)C(N)OC3=C2COc2ccccc23)cc(OC)c1OC (stereo not given) | – | 32.7 µM
42 | [N-]=[NH+]CC(=O)OC(COCc1ccccc1)COCc1ccccc1 | – | > 100 µM
43 | O=C(O)c1ccccc1C(=O)Nn1cnnc1 | – | > 100 µM
44 | CCOC(=O)C1C(c2ccc(OC)cc2)c2c([nH][nH]c2=O)CC1(O)OCC (stereo not given) | – | > 100 µM
45 | CCCCc1ccc(-n2c3nc(=O)n(C)c(=O)c-3nc3ccccc32)cc1 | – | 19.6 µM
46 | CC(=O)/C(=C\C1=CCCO1)C(=O)Nc1ccccc1C | – | > 100 µM
47 | OC(C/C(=N\N1CCCCC1)c1cccs1)(C(F)(F)F)C(F)(F)F | – | > 10 µM
48 | c1ccc(Nc2nnc(Cn3ccc4ccccc43)s2)cc1 | – | > 100 µM

Row | Compound | GI50 | TGI
49 | O=c1c2cccnc2cc(-c2ccccc2)n1CCO | – | > 100 µM
50 | Cc1cc(-c2nnc(N)nc2-c2ccc(F)cc2)cc(Cl)n1 | > 100 µM | > 100 µM
51 | CCCN1CCN(c2ccc3nc(-c4ccc5nc(-c6cc(OC)ccc6OC)[nH]c5c4)[nH]c3c2)CC1 | 1.87 µM | 3.78 µM
52 | CC(=O)N/C(=C\c1cccc([N+](=O)[O-])c1)c1nc2c3c(ccc2[nH]1)C(=O)c1ccccc1C3=O | – | > 100 µM
53 | CCOC(=O)[C@@H]1ON2O[C@H](OC3CCCC3(c3ccccc3)c3ccccc3)C[C@H]3OC(=O)[C@@H]1C32 (stereo not given in full) | – | > 100 µM
54 | C[C@]12CC[C@H](OCCC#N)CC1=CC[C@@H]1C2CC[C@]2(C)/C(=N/OCCC#N)CCC12 (stereo not given in full) | – | > 100 µM
55 | O=C1CCC2CCC1C2 (stereo not given) | – | > 100 µM
56 | O=C(c1cccs1)N(C(=S)N1CCN(c2ccccn2)CC1)C1CCCCC1 | – | > 100 µM
57 | Nc1cc(-c2cccc(OC(F)(F)F)c2)nc2ccc(N3CCCC3)cc12 | 0.305 µM and 0.208 µM and 0.125 µM | > 100 µM
58 | O=C1c2cc([N+](=O)[O-])ccc2-c2cccc(F)c21 | – | > 100 µM
59 | CC1(C)CC(n2cnc(-c3ccc(F)cc3)c2-c2ccnc(N)n2)CC(C)(C)N1 | > 25 µM | > 25 µM
60 | Cc1cccc(C)c1NC(=S)NC=C(C(N)=O)C(N)=O | – | > 100 µM
61 | O=[N+]([O-])c1ccc2[nH]ncc2c1Cl | – | 42.9 µM
62 | CC(=O)NC1C(O)C(O)C(CO)OC1n1ncc(=O)[nH]c1=O (stereo not given) | – | > 100 µM
63 | O=c1oc2ccccc2c(O)c1C(c1ccc(/C=C/c2ccccc2)cc1)c1c(O)c2ccccc2oc1=O | – | > 100 µM
64 | COC(=O)C(=O)C(C(=O)C(=O)Nc1ccccc1C(C)=O)c1nc2ccc(C(=O)c3ccccc3)cc2[nH]c1=O (stereo not given) | – | > 100 µM
65 | O=C1C(=O)c2ccccc2C(O)=C1CN(CCCl)CCCl | – | > 100 µM
66 | CCOC(=O)NC(=O)c1cn(CCCOC(=O)CCCCCCCCCCC(=O)OCCCn2cc(C(=O)NC(=O)OCC)c(=O)n(C)c2=O)c(=O)n(C)c1=O | – | > 100 µM
67 | CC[Si](CC)(CC)OC[C@]1([C@@H]2COC(C)(C)O2)CC=CC(=O)O1 | 25.8 µM | 80.4 µM
68 | CN(C)CC/C(=N\Nc1ccccc1)c1ccccc1 | – | > 100 µM
69 | COC(=O)C12C3C4C5C3(C#N)C1C5(C(=O)OC)C42C(=O)N(C(C)C)C(C)C (stereo not given) | – | > 100 µM
70 | O=C1NC(=S)NC(=O)C1=Cc1cccc2cc3ccccc3cc12 | – | 10.8 µM
71 | COc1cc2cc(C(=O)Nc3cc(N)c4ccccc4c3CCCl)[nH]c2c(OC)c1OC | 0.124 µM | 3.68 µM
72 | COc1cc(C(=O)C/C(CCC(=O)Nc2ccc(Cl)cc2C)=N/NC(=O)C(N)=O)ccc1O | – | > 100 µM

Row | Compound | GI50 | TGI
73 | CCCN1CN(C(C(=O)N[C@@H]2C(=O)N3C(C(=O)O)=C(C)CSC23)c2ccc(O)cc2)CSC1=S (stereo not given in full) | – | > 100 µM
74 | CCOC(=O)/C(C#N)=C1\c2c([nH]c(=S)[nH]c2=O)Oc2ccc3ccccc3c21 | – | > 100 µM
75 | CCOP(=O)(OCC)c1ccc(=O)[nH]c1-c1cccs1 | – | > 100 µM
76 | COc1cc([C@@H]2c3cc4c(cc3C[C@@H]3COC(=O)C32)OCO4)cc(OC)c1O (stereo not given in full) | – | > 100 µM
77 | O=C(c1ccco1)N(C(=S)N1CCN(c2ccccn2)CC1)C1CCCCC1 | – | > 100 µM
78 | O=C(CC12CC3CC(CC(C3)C1)C2)NCCOCCOCCOCCNC(=O)c1cc2c(o1)C(=O)c1ccccc1C2=O | 1.25 µM | 2.57 µM
79 | NC(=S)N/N=C(\C(=O)Nc1cccc([N+](=O)[O-])c1)c1nc2ccc([N+](=O)[O-])cc2[nH]c1=O | – | > 100 µM
80 | CN(C)C1CCN(C(=O)c2ccc(NC(=O)Nc3ccc(-c4nc(N5CCOCC5)nc(N5CCOCC5)n4)cc3)cc2)CC1 | 0.0134 µM and 0.0252 µM | 0.27 µM and 0.186 µM and 0.679 µM
81 | O=C(C[n+]1ccccc1)N=N/C(C(=O)Nc1c(Cl)c(O)c2ccccc2c1O)=C1/C(=O)Oc2cc(O)ccc2C1=O | – | > 100 µM
82 | COc1ccc(C2=C(N)c3c(OC)cccc3C2=O)cc1 | – | > 100 µM
83 | O=c1[nH]ccc2nc(N3CCC(O)CC3)nc(Nc3cccc(C(F)(F)F)c3)c12 | 2.28 µM | 29 µM
84 | C[C@@H]1N=C(c2ccc(Br)cc2)Nc2nc3ccccn3c2C1=O | 23.6 µM | > 100 µM
85 | Cc1nn(-c2ccccc2)c2[nH]c(=S)cnc12 | – | > 100 µM
86 | CC(C)CNc1nc(-c2ccccc2)nc2ccccc12 | 16 µM | 29.9 µM
87 | CC1=C(C(=O)NCCc2ccccc2)CC(C(=O)NCCc2ccccc2)=C(C)N1 | – | > 100 µM
88 | COc1ccc(C(c2c[nH]c3ccc(Br)cc23)c2c[nH]c3ccc(Br)cc23)cc1 | – | 0.924 µM
89 | COc1cc2c(Oc3ccc4[nH]c(C)cc4c3F)ccnc2cc1OCC1(N)CC1 | 2.76 µM | 12.4 µM
90 | CC(=O)N(CCc1ccccc1)C(C#N)c1ccc(OCCCCCCCCCCOc2ccc(C(C#N)N(CCc3ccccc3)C(C)=O)cc2)cc1 (stereo not given) | – | > 100 µM
91 | Cc1occc1C(=S)Nc1ccc(Cl)c(/C=N/OC(C)C)c1 | – | 57 µM
92 | Cc1ccc(NC(=O)CCC/C(CC(=O)c2ccc(Br)cc2)=N/NC(=O)CC#N)cc1 | – | > 100 µM
93 | CCSC1=N/C(=C\c2ccco2)C(Cl)=N1 | – | > 100 µM
94 | Nc1ccc2c3c(n(CCCCl)c(=O)c2c1)-c1cc2c(cc1C3=O)OCO2 | > 100 µM | > 100 µM
95 | COc1ccc2c(CN3CCC[C@H]3C(=O)O)cc3cc4c(cc3c2c1)OCO4 | 15.4 µM | 69 µM
96 | CC1(C)CCCCCCC2OC2CCCCCC(C)(C)C1=O (stereo not given) | – | > 100 µM
